The data set concerns the molecule itself. Briefly: cross-linking.

The values that follow come from article doi:10.1101/2019.12.19.883264 (bioRxiv, 2019).

B1: His-tagged NPM1 S48A, recombinant (natural protein)
chain: not shown
As for B1, the binding result was “binds”.
